# Measurements taken from the supplement of paper PMC10681739.
# Over roughly 2,700 sequences, “arbitrary fluorescence units” has its median near 4,100; the highest 2% begin near 54,000. Some of the results follow.
# Molecular target: T1, ETS1 (UniProt P14921)
# T1 sequence: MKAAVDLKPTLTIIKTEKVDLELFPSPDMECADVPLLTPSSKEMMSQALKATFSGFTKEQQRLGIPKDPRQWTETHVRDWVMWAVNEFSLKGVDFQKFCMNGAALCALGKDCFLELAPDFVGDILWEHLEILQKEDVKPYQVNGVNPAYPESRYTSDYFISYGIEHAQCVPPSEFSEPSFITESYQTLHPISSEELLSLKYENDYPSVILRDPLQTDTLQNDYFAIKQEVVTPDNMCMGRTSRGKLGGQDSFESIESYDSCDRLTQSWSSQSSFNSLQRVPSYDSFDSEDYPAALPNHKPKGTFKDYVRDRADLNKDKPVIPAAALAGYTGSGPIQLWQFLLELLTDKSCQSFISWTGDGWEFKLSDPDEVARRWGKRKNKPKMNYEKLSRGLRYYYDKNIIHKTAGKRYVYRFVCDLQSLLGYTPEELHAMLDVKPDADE
# Assay: ETS1 binding intensity (PBM fluorescence) (arbitrary fluorescence units); higher = stronger binding
# Details: ETS1 concentration 10 nM
# Protocol: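 gcPBM on wild-type 36-bp genomic probes with two neighbouring ETS1 sites (4-24 bp apart). Recombinant human ETS1 (10 nM) was detected with anti-ETS1 antibody fluorescence. Values are medians over 3 replicate spots. The probes sit in constant array flanks that are not printed.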
row,Sequence,ETS1 binding intensity
1,TGGAATCAATCTTCCTGCTGCAGGAAAGAGCCAGGC,1120
2,TCATCTCATCCTGTTTCTGCAACCAAGGAAGTCATC,4460
3,CACTGGGCTTCCTCTCCGCAGAGGCGGAACACGGCG,2580
4,TACTGAAGGGAAGTGACGACACAGCGGAAAGCCAAC,314
5,AGCAAGTCACTTCCTGTGTCAGTTTCCTGTGGCTGC,45800
6,AGGCAGACGTGCATCCGGGCGGATGATTAGCCGGTG,6340
7,GTTACTTCCTCTCCCCAGGTCTCTCGGTTTCCTCAT,23600
8,GGCCATTTCCGTTTTCTCTGAGTAACAGGAAATAAA,52900
9,TATCCCATTTCCTGGCCCTGCAGCATCCTGGTGGGG,16000
10,TTTGTTGACAGGAAAGCCGGGCTTCCTGTGAGGCCA,2310
11,GCAGAGGAAGTAGCTTACGCAAAGGCAGGAAGCATG,2500
12,AACACGGATACTCTCTCTCTGACGCAACTTCCTGTC,2500
13,CTGCAGCAGAAACGGAACAGGAAGCAGCCTCTGGGG,1510
14,GGGCCTAGGAAATGCCGCACTACAACTTCCGTCGGG,992
15,CGCCCCTGGGGCTTCCGCGGCGGAAGCCTAGCGTCC,824
16,GCCCTGCACCGGAAGGGAGGGCGGAAGCCACGGGAC,9950
17,TGAATGATTCACTTCCTTTCTTCCTGTGATAGTTAA,12200
18,CGCGATCTGCTTCCGGGTGTGCAGGAAACTGGGCGC,20700
19,CCAAGCACAGGAAGCACCCTGCCTTCCTGCCTCCTC,4330
20,ACAAAGCAGGATGCCCAAGAATACTTCCTTGCTTCT,1390
21,CGTCCTGACTTCCGGGGCGGGACGGAAGAGCGGGCG,25800
22,GGGGCCACTTCCCGGGGCCAGGCAGGAAGCCCGCCC,3870
23,AGACCTTGTGCATCCTGGGCAGGAAACCACAGGCTC,2140
24,AATGGGTCCTTCCTGAGGCTGATTTCCGCTCACTCT,3120
25,ACCCTTGACTCAGGAAGACAGGAAGTTTAACCATGA,2650
26,GACCAGGAGGAAGTTAGCTGTGGTTTCCGAGGTTAA,1350
27,GTAAAGAGGAAGCCGCCGCTTTAGTTTCCTCTTGTG,928

row,Sequence,ETS1 binding intensity
1,CGAACAGAGCCGCTTCCGCTTCCGCTCGCGCCGCGC,19800
2,CCAAGCTGGTTTCCTCTCCGGTTTCCTCCGGGGTGG,3800
3,GGCAGGAAGCGGTGTCTAAAGATGCCACTTCCTGGA,6680
4,ATTGCACATCCGTCTGGTGTTTGTGTTTCCTGTTGT,12000
5,CGCAACAGGAAATGACACACAGCACTTCCTCTCATA,21600
6,GAGCTGCAGGATGTGGTCAGGAGAGGAAGCGAGGCC,1810
7,CATAGGAGAGGGAAATGATAAGAGGAAATGGCTTCT,471
8,CCACGGGCCCATCCTGAGGGGACGGAAATGGTTTCA,772
9,ACCTTGAGGCAGGAAATAGCAGGAAACTCTAACCAC,7200
10,CCCCGGATGTTGATATGTCGTCTGCCCCGGAAACGG,7350
11,GGCTGCTTCCTGTGACAGTGAAATACATCCTTCAAG,28800
12,GCAAACTTCCTCTCACTACAGAGTTATTTCCTGGAA,19400
13,TCTGACTTCCCCGCTCGCCCGCGCCGCTTCCTCCTC,924
14,TCACTATCAGGAAGATGAAAGCAGGAAATCTACTTT,303
15,TACACTTCCCAGAAGTCCAGGCGGCAACTTCCGCTC,4790
16,CGAACCGGAAGCCGGGCCACGTGACCCGGAAGCGGC,24800
17,TTGGCTCTTCCTGGTTCTACAGTAGCTTCCTGACTT,4110
18,TGACCCCCGGAAGTCCCGCCCCGAATTCCGGCCCGC,10200
19,GTCAAGTGACTTCAGGAAGGAAGTGCCTTTTTCTAA,335
20,CCCAGCCTCACTTCCTGCCACATCCCTCACTGCAGC,30400
21,AGGGCGGAAACCACCGGCGCGGGTGACCGGAAGCCC,5300
22,CGGGCTATTATCCTGTGCCTTGCAGGATGTTTAGCA,599
23,CGGGGCGGCGGATGTTTGCGCAGCTTCCTTGAGATG,2650
24,GCGCCGGAAGCAGAGACGCGTTTCGGGAGGAAGGTG,3580
25,CTGGCCGACAGGATACAACTAAAGGAAATGTGCTAG,602
26,CTTATAATGCTTCCTCCTTCTCTTCCTCCCAGTAGG,1960
27,GCAGCTCATCTCTTCCGTAAGGAAGCTGGAACCCAG,473

row,Sequence,ETS1 binding intensity
1,TGTTTACTTCCGGCTTTTCGCCTAATTCCGGCGGCC,55000
2,GGTGAAGCGGAAACGCTTCAAACCGGGATGTTGCGG,10200
3,CAGGCCGGAAGCACCTGGGGCCGGGCAGGAAGGTCG,9650
4,GCTGAAGGCAGGAAGTGGAGAGCGGAAGTGAGCTGT,15200
5,GGGAGGGAAATGGAGCTCCCATGGGTGCTTCCTGGG,390
6,GCAAATTCAGGAAATGAGCCTGTTTCCTCCTATTAT,4350
7,CCTCAGGATGGCATCAGCCTGTGACCACTTCCTGTG,2200
8,GCTCACACTTCCCCGTGGTGTCTCAGGATGAGGTAA,406
9,TTACACAGGGCAGGATGTGGGGGAAGTTACAGACAG,2170
10,TTGGGACCCGCTATCCGCTCTTTCCGTCCTCCAGGC,293
11,AAACGGCGGAAGTAGGCCGCAGCGCTTCCTCAGTAT,9980
12,AATAGAGGGAGAAGGAAATGGGATGTTAGAAGGTGA,314
13,GACAGTCCCAGGAAGTTGTAAGCTTCCTGTCCTTGG,6260
14,GCGCAATTTCCTGTGGCCTTTTCATTTCCTGCTGGG,28800
15,CTGAGTTCCGCCTGCGGGACCTGAGGCTTCCTGCAG,2320
16,TCACAGAGCACAGGAAATACTTCCGCCCGCCCGTCA,18400
17,TGGGTGGCAGGAAGTGCTGTGGTTTCCTCCACCTGA,8520
18,CAGAGGGACTTCCCGCCAAAGCTCTTCCGGTTTTCA,11400
19,ATTGATGTGGTTCCGTTGTACAGGAAGTGGCATTTA,4260
20,CCACTTCCGGCATGCGCAGGGACGCACCTTCCGGCT,109000
21,GAGCTGCGGAAGGGAGAGTCAGCGCTTCCGAGGCGG,242
22,CTGACAACATCCTCATGAGTGCATTTCCCTTCTGCA,2790
23,CACTCACTTTCCTGTTAGGAAAGTTTCCTGTTAGGG,5530
24,TTGCCGGAAATGACGAACGAGTCAACCGGATCGGTG,8930
25,GCCTCCCGACATCCTGGGAGCCGGAAGGGGCGTTGC,6200
26,CATAGTTTCCTCTGAGGTAATAAACAGGATTCCCAC,2850
